Measurements: PubChem BioAssay AID493208 (National Center for Advancing Translational Sciences (NCATS), 2011)
Screen size: about 44,000 compounds; about 340 (0.77%) were called active. Inconclusive results (about 5%) are left out. The call rests on the fitted dose curve; in most records, active means well fitted inhibition curve with a large enough effect; inconclusive means small, poorly fitted or top-dose-only effect; inactive means flat fitted curve, though single readings scatter. Some of the results follow.

Assay: Acumen qHTS Assay for Inhibitors of the mTORC1 Signaling Pathway in MEF (Tsc2-/-, p53-/-) Cells: Sytravon; further: nearly all actives have a fitted effect of over 50% in size;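 on activity change, negative = inhibition: plate controls were DMSO for no effect and rapamycin for full effect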
Details: phospho-rpS6 immunofluorescence/PI, 24 h; series mostly up to 38.3 µM; activity change, negative = inhibition: at the top concentration
In short: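 Readout is phospho-S6 Alexa 488 signal normalized to PI per well, reported as % active cells with thresholds set from rapamycin (7.5 nM) and DMSO controls. Cells: Tsc2-/-, p53-/- MEFs, 24 hrs compound at 37 C; PI cell number serves as viability.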
Potency means the concentration at half of the fitted maximal effect.

SMILES | activity change, negative = inhibition | Potency
COc1ccc(-c2nc3sc(CCNC(=O)C(=O)Nc4ccc(OC)c(OC)c4)c(C)n3n2)cc1 | inactive: -2.3% | –
Cc1ccccc1Cn1c2ccccc2c2cnn(CC(=O)NC3CCCCCC3)c(=O)c21 | inactive: -1.71% | –
COc1ccc(Br)cc1Cn1nnc(C(=O)Nc2cccc(SC)c2)c1N | inactive: -1.06% | –
CC(C)CCNC(=O)Cn1nc(N2CCN(c3ccccc3)CC2)ccc1=O | inactive: -2.86% | –
Cc1ccc(NC(=O)c2ccc(CN3CC(=O)N4CCCCC4C3=O)cc2)c(Cl)c1 (stereo not given) | inactive: -14.6% | –
COc1ccc(OC)c(C2C(C(=O)Nc3ccc(C)cc3)=C(C)Nc3nnnn32)c1 (stereo not given) | inactive: -0.763% | –
CN1CCN(C(=O)c2ccc3c(c2)N(Cc2ccc(C(F)(F)F)cc2)C(=O)c2ccccc2S3)CC1 | inactive: -10.3% | –
CN(CC(=O)Nc1cccc(F)c1)S(=O)(=O)c1ccc2c(c1)n(C)c(=O)c(=O)n2C | inactive: -1.24% | –
CC(=O)c1cccc(NC(=O)CSc2ncc3c(n2)-c2cc(Cl)ccc2N(Cc2ccccc2)S3(=O)=O)c1 | inactive: 7.9% | –
COc1cc(CNC(=O)c2cc3n(n2)CCCN(Cc2cccc(F)c2)C3=O)cc(OC)c1OC | inactive: 0% | –
O=C(CC(c1cccs1)N1Cc2ccccc2C1=O)Nc1ccc(F)cc1 (stereo not given) | inactive: -10.4% | –
CSc1cccc(NC(=O)c2cc3c(COC(C)=O)cnc(C)c3oc2=O)c1 | inactive: 24.3% | –
COc1ccc(S(=O)(=O)NCc2nc(-c3ccccc3)no2)cc1 | inactive: -1.51% | –
O=C(CNC(=O)c1ccc(F)cc1)OCc1cc(=O)n2ccsc2n1 | inactive: -1.57% | –
COc1ccc(C(=O)Nc2ccc3oc(-c4cccc5c(Br)cccc45)nc3c2)cc1 | inactive: 4.8% | –
Cc1ccccc1Cn1c(CN2CCC(C(=O)NCc3ccc(Cl)cc3)CC2)cc2ccccc21 | inactive: 0.362% | –
Cc1c(Cl)cccc1NC(=O)C(=O)NCCc1csc(-c2ccc(C(F)(F)F)cc2)n1 | inactive: 0.0849% | –
O=S1(=O)c2ccccc2N(Cc2ccccc2F)c2ccccc21 | inactive: -0.383% | –
CCCCN(C)C(=O)c1ccc2c(=O)n3nc(Nc4cc(C)ccc4C)sc3nc2c1 | inactive: -1.89% | –
Cc1cc(C)cc(NC(=O)COc2cccc3c(=O)n(C)ccc23)c1 | inactive: -0.0434% | –
COc1ccc(CCNC(=O)c2ccc(-n3c(C)cc4c3CCC(C)C4)cc2)cc1OC (stereo not given) | inactive: -17.2% | –
O=C(NCc1ccc2c(c1)OCO2)c1ccc2c(c1)N(Cc1c(F)cccc1Cl)C(=O)c1ccccc1S2 | inactive: 5.34% | –
Cc1cc(C)c(OCC(=O)N(Cc2ccc(N(C)C)cc2)Cc2ccco2)c(C)c1 | inactive: -21.9% | –
CCOc1ccc(NS(=O)(=O)c2ccc3c(c2)NC(=O)CCS3)cc1 | inactive: -10.8% | –

SMILES | activity change, negative = inhibition | Potency
COC(=O)c1ccccc1NC(=O)Cn1c(=O)n(CCC(=O)NCc2ccc3c(c2)OCO3)c(=O)c2ccccc21 | inactive: 3.5% | –
COc1ccc(C(=O)c2cn(CC(=O)Nc3cc(OC)cc(OC)c3)c3ccc(OC)cc3c2=O)cc1 | inactive: -14.5% | –
Cc1ccc(-c2cn3nc(N4CCCC(C(=O)NCc5ccccc5F)C4)sc3n2)cc1 (stereo not given) | inactive: -2.3% | –
CC1=C(C(=O)OC2CCCC2)C(c2c(F)cccc2Cl)CC(=O)N1 (stereo not given) | inactive: -2.3% | –
Cc1ccc(Cn2nc3n(c2=O)-c2cc(Cl)ccc2OC3)cc1 | inactive: -3.51% | –
COc1ccc(-n2c(-c3cccc(F)c3)nc3c(cnn3-c3ccc(C)cc3)c2=O)cc1 | inactive: -6.1% | –
Cc1ccc(-c2csc(-c3c(N)c(C(=O)c4ccc5c(c4)OCO5)n4ccccc34)n2)cc1 | inactive: -0.279% | –
CCOC(=O)c1c(S(=O)(=O)N2CCC(C(=O)NCc3cccc(OC)c3)CC2)c(C)n(C)c1C | inactive: 0.0466% | –
Cc1cccc(N(C)C(=O)Cn2c(=O)oc3cc(S(=O)(=O)N4CCCCC4)ccc32)c1 | inactive: 5.35% | –
COc1ccc(-c2nc3ccccc3o2)cc1NC(=O)Cc1ccc(Cl)cc1 | inactive: 2.44% | –
COc1cccc(N2C(=O)C(CC(=O)Nc3cccc(F)c3)N(C3CCCC3)C2=O)c1 (stereo not given) | inactive: -3.31% | –
Cn1ccnc1SCC(=O)Nc1cccc(Br)c1 | inactive: 2.96% | –
COC(=O)c1ccc(NC(=O)Cn2c(=O)oc3ccccc32)cc1 | inactive: 4.38% | –
Cc1nc2ccn(Cc3ccco3)c(=O)c2cc1C(=O)NCc1ccc(Cl)cc1 | inactive: -14.8% | –
NC(=O)c1cc(S(=O)(=O)NCc2cccc(Br)c2)cs1 | inactive: 2.02% | –
Cc1ccc(CNC(=O)c2ccc3c(c2)CCN3S(=O)(=O)c2ccc(Br)cc2)cc1 | inactive: -9.23% | –
COc1ccc(C2CC(=O)c3cc(-c4nc(-c5cccc([N+](=O)[O-])c5)cs4)c(=O)n(-c4ccccc4N)c3C2)cc1 (stereo not given) | inactive: -10.7% | –
COc1ccc(N2CC(NC(=O)C3CCCCC3)CC2=O)cc1 (stereo not given) | inactive: 0.0318% | –
CCn1c(SCC(=O)Nc2cc(C)ccc2F)nnc1-c1ccccc1O | inactive: -3.53% | –
CCN(c1ccc(OC)cc1)S(=O)(=O)c1ccc2[nH]c3c(c2c1)CCCCC3 | inactive: -10.9% | –
CCOC(=O)CNC(=O)N1CCN(S(=O)(=O)c2ccc3c(ccn3C)c2)CC1 | inactive: -0.543% | –
COc1ccc(CC(=O)N2CC(=O)Nc3ccc(F)cc3C2c2ccccc2)cc1 (stereo not given) | inactive: 18.1% | –
CC(=O)c1ccc(NC(=O)C2CCN(S(=O)(=O)c3ccc4[nH]c5c(c4c3)CCCCC5)CC2)cc1 | inactive: 1.19% | –
Cc1ccccc1CNC(=O)Cn1c(=O)c2cccn2c2cccnc21 | inactive: 2.91% | –

SMILES | activity change, negative = inhibition | Potency
COc1ccccc1CNC(=O)c1ccc(N2CCCC2)c(NC(=O)NCc2ccc(C)cc2)c1 | inactive: 13.5% | –
CCCOc1ccc(C2c3c(oc4ccccc4c3=O)C(=O)N2c2nnc(C(C)C)s2)cc1 (stereo not given) | inactive: -0.0854% | –
COc1ccc(C2=NC(c3ccccc3)=Nc3ccc(C)cc3N2)cc1 | inactive: -3.47% | –
CCc1ccc(CNC(=O)C2CCN(c3nn4cc(-c5ccc(OC)cc5)nc4s3)CC2)cc1 | inactive: 0% | –
COC(=O)c1ccccc1NC(=O)c1ccc(CN2CC(=O)N3CCCCC3C2=O)cc1 (stereo not given) | inactive: -6.31% | –
COc1ccccc1N1CCN(CC(O)COc2ccc(Cl)c(C)c2)CC1 (stereo not given) | inactive: -10.5% | –
COc1ccc(NC(=O)CSc2nnc(-c3ccncc3)n2-c2ccccc2)cc1 | inactive: 0.878% | –
CN1CCN(C(=O)c2ccc3c(c2)N(Cc2ccc(F)cc2)C(=O)c2ccccc2S3(=O)=O)CC1 | inactive: -5.7% | –
CCC(C)NC(=O)c1c2c(nc3ccccc13)C(=O)N(C1CCCCC1)C2 (stereo not given) | inactive: -6.67% | –
O=C(CSc1n[nH]c(-c2ccc(F)cc2)n1)N1CCN(c2ccc(F)cc2)CC1 | inactive: 0% | –
CCOC(=O)c1cc(S(=O)(=O)Nc2ccccc2)[nH]n1 | inactive: 0.72% | –
CCOC(=O)N[C@H](Cc1c[nH]c2ccccc12)C(=O)Nc1cccc(Cl)c1 | inactive: 2.41% | –
COc1ccc(OC)c(NC(=O)c2nc(S(=O)(=O)Cc3ccc(F)cc3)ncc2Cl)c1 | – | active: 2.93 µM
CCc1ccc(C2CC(=O)Nc3c2c(=O)n(C)c2ncnn32)cc1 (stereo not given) | inactive: 4.36% | –
CC(C)Oc1ccc(CNC(=O)C2=Cc3ccccc3OC2)cc1 | inactive: 3.47% | –
COc1ccc(C(=O)c2cn(CC(=O)Nc3cc(C)ccc3C)c3nc(C)ccc3c2=O)cc1 | inactive: 2.41% | –
CCOCCCN(Cc1ccco1)C(=O)c1cc2c(s1)-c1c(C)cccc1OC2 | inactive: -5.18% | –
NC(=O)C1CCN(c2csc3ccc(F)cc3c2=O)CC1 | inactive: -0.48% | –
CCn1c(CN2CCN(C)CC2)nc2cc(NC(=O)c3ccc([N+](=O)[O-])cc3)ccc21 | inactive: -7.76% | –
COc1ccc(N2CCN(C(CNC(=O)c3ccc(OC)c(OC)c3)c3cccnc3)CC2)cc1 (stereo not given) | inactive: 3.5% | –
Cc1ccc(NC(=O)CN(Cc2ccccc2)S(=O)(=O)c2ccc3nc(C)sc3c2)c(C)c1 | inactive: 2.58% | –
Cc1ccc(-c2nc(CSc3nnc(C)n4c3cc3occc34)c(C)o2)cc1 | inactive: -2.99% | –
Cc1cccc2nc(-c3ccccn3)c(Nc3ccccc3)n12 | inactive: -10.5% | –
CCCCOC(=O)c1ccc(-n2nnc3c(sc4nc(C)cc(C)c43)c2=O)cc1 | inactive: 0.404% | –

SMILES | activity change, negative = inhibition | Potency
COc1ccc(CNC(=O)c2c(O)nc3c(C)cccn3c2=O)cc1 | inactive: -6.32% | –
CN(C)c1ccc(CNC(=O)CCCN2C(=O)c3cccnc3Oc3ccc(Cl)cc32)cc1 | inactive: -13.4% | –
CC(C)Cn1cc(NC(=O)N2CCN(c3cccc(C(F)(F)F)c3)CC2)c2ccccc2c1=O | inactive: 6.98% | –
Cc1cc(N2CCC(C)CC2)nc2ccc(NC(=O)Cc3ccccc3Br)cc12 | inactive: 0% | –
O=S(=O)(NCCc1nnc2ccc(SCc3ccccc3Cl)nn12)c1ccccc1 | inactive: 3.36% | –
CCOc1ccc(-c2nc(-c3ccccc3)c(-c3ccccc3)[nH]2)cc1OCC | inactive: 1.34% | –
COc1cc2nc(Nc3cccc(F)c3)nc(N)c2cc1OC | inactive: -27.5% | –
Cc1ccc2oc(-c3ccc(C)c(NC(=O)/C=C/c4ccco4)c3)nc2c1 | inactive: -2.37% | –
N#Cc1ccccc1CSc1nnc(-c2ccc(Br)cc2)o1 | inactive: -1.68% | –
Cc1ccc(CNC(=O)Cn2ccn(-c3cccc(Cl)c3)c(=O)c2=O)cc1 | inactive: 2.86% | –
COc1cccc(-c2cc(C(F)(F)F)n3ncc(C(=O)OC(C)C)c3n2)c1 | inactive: -3.29% | –
Cc1ccc(-c2noc(CNC(=O)c3ccc(C)c(Cl)c3)n2)cc1 | inactive: -18.2% | –
CCCOc1ccc(C2C(=O)N(C3CCC(C)CC3)CC(=O)N2CCc2ccccc2)cc1OC (stereo not given) | inactive: -8.07% | –
CCN(CC)C(=O)C1=C(C)Nc2nc3ccccc3n2C1c1cccc(OC)c1 (stereo not given) | inactive: 3.07% | –
Cc1ccc(-n2c(C)cc(/C=C(\C#N)C(=O)Nc3ccc(C)c(C)c3)c2C)cc1 | inactive: 1.17% | –
COc1ccc(NC(=O)[C@H](Cc2ccccc2)N2Cc3ccccc3C2=O)cc1OC | inactive: -0.809% | –
COc1cccc(NC(=O)Cn2c(=O)n(Cc3ccc4c(c3)OCO4)c(=O)c3oc4ccccc4c32)c1 | inactive: 4.37% | –
Cc1ccc(-n2ncc(C(=O)NCCN3CCN(C)CC3)c2C2CCN(C(=O)OC(C)(C)C)CC2)cc1C | inactive: 6.06% | –
CCOc1ccc(CNC(=O)Cn2c(=O)c3cccn3c3cccnc32)cc1 | inactive: -5.9% | –
COc1ccc2c(c1)c(N1CCCC1=O)c(C(=O)Nc1ccc(OC)c(Cl)c1)n2C | inactive: -9.43% | –
CC(=O)c1cccc(NS(=O)(=O)c2c(C(=O)N3CCCCCC3)c(C)n(C)c2C)c1 | inactive: -3.16% | –
CCc1ccc(NC(=O)c2cc(S(=O)(=O)NC3CCCCCC3)ccc2F)cc1 | inactive: -22.4% | –
Cc1nn(-c2ccccc2)c2c1N(CC(=O)N1CCN(c3ccc(Cl)cc3)CC1)C(=O)CS2 | inactive: -7.62% | –
